In the supplement of paper PMC8728848:
This is one part of the list.

Experiments:
Experiment in all cases: glycan array binding signal (z-score within array); higher = stronger binding
Settings in all cases: glycan notation: IUPAC condensed, linker removed
[1] = target: Fuc(a1-2)[Gal(a1-3)]Gal(b1-4)GlcNAc(b1-2)Man(a1-3)[Fuc(a1-2)[Gal(a1-3)]Gal(b1-4)GlcNAc(b1-2)Man(a1-6)]Man(b1-4)GlcNAc(b1-4)GlcNAc
Summary of the method: (§1)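 Columns mapping to the same glycan were averaged after glycan names were converted to IUPAC-condensed notation. The data come from 3228 arrays in the Consortium for Functional Glycomics database, limited to those with an available protein sequence. Binding is reported as a within-array Z-score averaged across arrays of one protein sequence and across linkers.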

[2] = target: Fuc(a1-2)[Gal(a1-3)]Gal(b1-4)[Fuc(a1-3)]GlcNAc
Summary of the method: as §1

[3] = target: Fuc(a1-2)[Gal(a1-4)]Gal(b1-4)GlcNAc
Summary of the method: as §1

[4] = target: Fuc(a1-2)[GalNAc(a1-3)]Gal
Summary of the method: as §1

[5] = target: Fuc(a1-2)[GalNAc(a1-3)]Gal(b1-3)GlcNAc
Summary of the method: as §1

[6] = target: Fuc(a1-2)[GalNAc(a1-3)]Gal(b1-3)GlcNAc(b1-2)Man(a1-3)[Fuc(a1-2)[GalNAc(a1-3)]Gal(b1-3)GlcNAc(b1-2)Man(a1-6)]Man(b1-4)GlcNAc(b1-4)GlcNAc
Summary of the method: as §1

[7] = target: Fuc(a1-2)[GalNAc(a1-3)]Gal(b1-4)Glc
Summary of the method: as §1

[8] = target: Fuc(a1-2)[GalNAc(a1-3)]Gal(b1-4)GlcNAc
Summary of the method: as §1

[9] = target: Fuc(a1-2)[GalNAc(a1-3)]Gal(b1-4)GlcNAc(b1-2)Man(a1-3)[GalNAc(a1-3)[Fuc(a1-2)]Gal(b1-4)GlcNAc(b1-2)Man(a1-6)]Man(b1-4)GlcNAc(b1-4)GlcNAc
Summary of the method: as §1

[10] = target: Fuc(a1-2)[GalNAc(a1-3)]Gal(b1-4)GlcNAc(b1-3)Gal(b1-4)GlcNAc
Summary of the method: as §1

[11] = target: Fuc(a1-2)[GalNAc(a1-3)]Gal(b1-4)GlcNAc(b1-3)Gal(b1-4)GlcNAc(b1-3)Gal(b1-4)GlcNAc
Summary of the method: as §1

[12] = target: Fuc(a1-2)[GalNAc(a1-3)]Gal(b1-4)[Fuc(a1-3)]GlcNAc
Summary of the method: as §1

[13] = target: Fuc(a1-2)[GalNAc(a1-4)]Gal(b1-4)GlcNAc
Summary of the method: as §1

[14] = target: Fuc(a1-2)[GalNAc(b1-3)]Gal
Summary of the method: as §1

[15] = target: Fuc(a1-3)GlcNAc
Summary of the method: as §1

[16] = target: Fuc(a1-3)[Gal(b1-4)]Glc6S
Summary of the method: as §1

[17] = target: Fuc(a1-3)[Gal(b1-4)]GlcNAc
Summary of the method: as §1

[18] = target: Fuc(a1-3)[Gal(b1-4)]GlcNAc(b1-2)Man(a1-3)[Fuc(a1-3)[Gal(b1-4)]GlcNAc(b1-2)Man(a1-6)]Man(b1-4)GlcNAc(b1-4)GlcNAc
Summary of the method: as §1

[19] = target: Fuc(a1-3)[Gal(b1-4)]GlcNAc(b1-2)Man(a1-6)[Gal(b1-4)GlcNAc(b1-2)Man(a1-3)]Man(b1-4)GlcNAc(b1-4)GlcNAc
Summary of the method: as §1

[20] = target: Fuc(a1-3)[Gal(b1-4)]GlcNAc(b1-3)Gal(b1-3)[Fuc(a1-4)]GlcNAc
Summary of the method: as §1

[21] = target: Fuc(a1-3)[Gal(b1-4)]GlcNAc(b1-4)Gal(b1-4)[Fuc(a1-3)]GlcNAc
Summary of the method: as §1

[22] = target: Fuc(a1-3)[Gal(b1-4)]GlcNAc(b1-4)Gal(b1-4)[Fuc(a1-3)]GlcNAc(b1-4)Gal(b1-4)[Fuc(a1-3)]GlcNAc
Summary of the method: as §1

[23] = target: Fuc(a1-3)[Gal(b1-4)]GlcNAc6S
Summary of the method: as §1

[24] = target: Fuc(a1-3)[Gal3S(b1-4)]Glc6S
Summary of the method: as §1

[25] = target: Fuc(a1-3)[Gal3S(b1-4)]GlcNAc
Summary of the method: as §1

[26] = target: Fuc(a1-3)[Gal3S(b1-4)]GlcNAc6S
Summary of the method: as §1

[27] = target: Fuc(a1-3)[GalNAc(b1-4)]GlcNAc
Summary of the method: as §1

[28] = target: Fuc(a1-3)[Neu5Ac(a2-3)]Gal(b1-4)GlcNAc(b1-3)GalNAc
Summary of the method: as §1

[29] = target: Fuc(a1-4)GlcNAc
Summary of the method: as §1

[30] = target: Fuc(b1-3)GlcNAc
Summary of the method: as §1

B1: Eap (Staphylococcus aureus), A0A7L5PYT7 (protein)
chain: MKFKSLITTTLALGVLASTGANFNNNEAAAAAKPLDKSSSSLHHGYSKVHVPYAITVNGTSQNILSSLTFNKNQNISYKDLEDRVKSVLKSDRGISDIDLRLSKQAKYTVYFKNGTKKVIDLKAGIYTADLINTSEIKAININVDTKKQVEDKKKDKANYQVPYTITVNGTSQNILSNLTFNKNQNISYKDLEDKVKSVLESNRGITDVDLRLSKQAKYTVNFKNGTKKVIDLKSGIYTANLINSSDIKSININVDTKKHIENKAKRNYQVPYSINLNGTSTNILSNLSFSNKPWTNYKNLTSQIKSVLKHDRGISEQDLKYAKKAYYTVYFKNGGKRILQLNSKNYTANLVHAKDVKRIEITVKTGTKAKADRYVPYTIAVNGTSTPILSDLKFTGDPRVGYKDISKKVKSVLKHDRGIGERELKYAKKATYTVHFKNGTKKVININSNISQLNLLYVQDIKKIDIDVKTGTKAKADSYVPYTIAVNGTSTPILSKLKISNKQLISYKYLNDKVKSVLKSERGISDLDLKFAKQAKYTVYFKNGKKQVVNLKSDIFTPNLFSAKDIKKIDIDVKQYTKSKKNK
[1]
  glycan array binding signal (z-score): -0.586
[2]
  glycan array binding signal (z-score): 0.411
[3]
  glycan array binding signal (z-score): -0.506
[4]
  glycan array binding signal (z-score): -0.319
[5]
  glycan array binding signal (z-score): 0.12
[6]
  glycan array binding signal (z-score): -0.274
[7]
  glycan array binding signal (z-score): -0.229
[8]
  glycan array binding signal (z-score): -0.361
[9]
  glycan array binding signal (z-score): -0.447
[10]
  glycan array binding signal (z-score): 0.989
[11]
  glycan array binding signal (z-score): 3.63
[12]
  glycan array binding signal (z-score): 0.471
[13]
  glycan array binding signal (z-score): -0.285
[14]
  glycan array binding signal (z-score): -0.124
[15]
  glycan array binding signal (z-score): -0.243
[16]
  glycan array binding signal (z-score): 1.41
[17]
  glycan array binding signal (z-score): -0.372
[18]
  glycan array binding signal (z-score): -0.195
[19]
  glycan array binding signal (z-score): -0.535
[20]
  glycan array binding signal (z-score): -0.512
[21]
  glycan array binding signal (z-score): 0.091
[22]
  glycan array binding signal (z-score): -0.587
[23]
  glycan array binding signal (z-score): 1.35
[24]
  glycan array binding signal (z-score): 0.863
[25]
  glycan array binding signal (z-score): 0.112
[26]
  glycan array binding signal (z-score): 4.89
[27]
  glycan array binding signal (z-score): -0.449
[28]
  glycan array binding signal (z-score): 3.33
[29]
  glycan array binding signal (z-score): -0.004
[30]
  glycan array binding signal (z-score): -0.218
